This is one part of the list.
What was measured:
Test in all cases: glycan array binding signal (z-score within array); higher = stronger binding
Details in all cases: glycan notation: IUPAC condensed, linker removed
[1] = biological target: GlcNAc(b1-4)GlcNAc(b1-4)GlcNAc(b1-4)GlcNAc(b1-4)GlcNAc
In short: (§1)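 The Consortium for Functional Glycomics database supplied 3228 glycan arrays, of which those lacking an available protein sequence were dropped. The binding signal, a within-array Z-score, was averaged across arrays of the same protein sequence and across linkers. Negative scores can be read as non-binding.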

[2] = biological target: GlcNAc(b1-4)GlcNAc(b1-4)GlcNAc(b1-4)GlcNAc(b1-4)GlcNAc(b1-4)GlcNAc
In short: as §1

[3] = biological target: GlcNAc(b1-4)[GlcNAc(b1-6)]GalNAc
In short: as §1

[4] = biological target: GlcNAc(b1-6)Gal(b1-4)GlcNAc
In short: as §1

GlcNAc(b1-6)GalNAc = biological target: GlcNAc(b1-6)GalNAc
In short: as §1

[5] = biological target: GlcNAc6S(b1-3)Gal(b1-4)GlcNAc
In short: as §1

Kdn(a2-3)Gal(b1-3)GalNAc = biological target: Kdn(a2-3)Gal(b1-3)GalNAc
In short: as §1

Kdn(a2-3)Gal(b1-3)GlcNAc = biological target: Kdn(a2-3)Gal(b1-3)GlcNAc
In short: as §1

Kdn(a2-3)Gal(b1-4)Glc = biological target: Kdn(a2-3)Gal(b1-4)Glc
In short: as §1

Kdn(a2-3)Gal(b1-4)GlcNAc = biological target: Kdn(a2-3)Gal(b1-4)GlcNAc
In short: as §1

[6] = biological target: Kdn(a2-3)Gal(b1-4)[Fuc(a1-3)]GlcNAc
In short: as §1

Kdn(a2-6)Gal(b1-4)GlcNAc = biological target: Kdn(a2-6)Gal(b1-4)GlcNAc
In short: as §1

[7] = biological target: Man(a1-2)Man(a1-2)Man(a1-3)Man
In short: as §1

[8] = biological target: Man(a1-2)Man(a1-2)Man(a1-6)[Man(a1-3)]Man
In short: as §1

Man(a1-2)Man(a1-3)Man = biological target: Man(a1-2)Man(a1-3)Man
In short: as §1

[9] = biological target: Man(a1-2)Man(a1-3)[Man(a1-2)Man(a1-6)]Man
In short: as §1

[10] = biological target: Man(a1-2)Man(a1-3)[Man(a1-2)Man(a1-6)]Man(a1-6)[Man(a1-2)Man(a1-2)Man(a1-3)]Man
In short: as §1

[11] = biological target: Man(a1-2)Man(a1-3)[Man(a1-2)Man(a1-6)]Man(a1-6)[Man(a1-2)Man(a1-2)Man(a1-3)]Man(b1-4)GlcNAc(b1-4)GlcNAc
In short: as §1

[12] = biological target: Man(a1-2)Man(a1-3)[Man(a1-6)]Man(a1-6)[Man(a1-2)Man(a1-3)]Man(b1-4)GlcNAc(b1-4)GlcNAc
In short: as §1

[13] = biological target: Man(a1-2)Man(a1-6)[Man(a1-3)]Man(a1-6)[Man(a1-2)Man(a1-2)Man(a1-3)]Man
In short: as §1

[14] = biological target: Man(a1-2)Man(a1-6)[Man(a1-3)]Man(a1-6)[Man(a1-2)Man(a1-2)Man(a1-3)]Man(b1-4)GlcNAc(b1-4)GlcNAc
In short: as §1

Man(a1-3)[Man(a1-6)]Man = biological target: Man(a1-3)[Man(a1-6)]Man
In short: as §1

[15] = biological target: Man(a1-3)[Man(a1-6)]Man(a1-6)[Man(a1-2)Man(a1-3)]Man(b1-4)GlcNAc(b1-4)GlcNAc
In short: as §1

[16] = biological target: Man(a1-3)[Man(a1-6)]Man(a1-6)[Man(a1-3)]Man
In short: as §1

[17] = biological target: Man(a1-3)[Man(a1-6)]Man(a1-6)[Man(a1-3)]Man(b1-4)GlcNAc(b1-4)GlcNAc
In short: as §1

[18] = biological target: Man(a1-3)[Man(a1-6)]Man(b1-4)GlcNAc(b1-4)GlcNAc
In short: as §1

[19] = biological target: Man(a1-3)[Man(a1-6)]Man(b1-4)GlcNAc(b1-4)[Fuc(a1-6)]GlcNAc
In short: as §1

Man(a1-6)Man = biological target: Man(a1-6)Man
In short: as §1

Man(b1-4)GlcNAc = biological target: Man(b1-4)GlcNAc
In short: as §1

MurNAc(b1-4)GlcNAc = biological target: MurNAc(b1-4)GlcNAc
In short: as §1

Neu5Ac(a2-3)Gal = biological target: Neu5Ac(a2-3)Gal
In short: as §1

[20] = biological target: Neu5Ac(a2-3)Gal(b1-3)GalNAc
In short: as §1

[21] = biological target: Neu5Ac(a2-3)Gal(b1-3)GalNAc(b1-3)Gal(a1-4)Gal(b1-4)Glc
In short: as §1

[22] = biological target: Neu5Ac(a2-3)Gal(b1-3)GalNAc(b1-4)Gal(b1-4)Glc
In short: as §1

[23] = biological target: Neu5Ac(a2-3)Gal(b1-3)GalNAc(b1-4)[Neu5Ac(a2-3)]Gal(b1-4)Glc
In short: as §1

[24] = biological target: Neu5Ac(a2-3)Gal(b1-3)GalNAc(b1-4)[Neu5Ac(a2-8)Neu5Ac(a2-3)]Gal(b1-4)Glc
In short: as §1

[25] = biological target: Neu5Ac(a2-3)Gal(b1-3)GalNAc6S
In short: as §1

[26] = biological target: Neu5Ac(a2-3)Gal(b1-3)GlcNAc
In short: as §1

[27] = biological target: Neu5Ac(a2-3)Gal(b1-3)GlcNAc(b1-2)Man
In short: as §1

[28] = biological target: Neu5Ac(a2-3)Gal(b1-3)GlcNAc(b1-2)Man(a1-3)[GlcNAc(b1-4)][Neu5Ac(a2-3)Gal(b1-3)GlcNAc(b1-2)Man(a1-6)]Man(b1-4)GlcNAc(b1-4)GlcNAc
In short: as §1

[29] = biological target: Neu5Ac(a2-3)Gal(b1-3)GlcNAc(b1-2)Man(a1-3)[Neu5Ac(a2-3)Gal(b1-3)GlcNAc(b1-2)Man(a1-6)]Man(b1-4)GlcNAc(b1-4)GlcNAc
In short: as §1

[30] = biological target: Neu5Ac(a2-3)Gal(b1-3)GlcNAc(b1-2)[Neu5Ac(a2-3)Gal(b1-3)GlcNAc(b1-4)]Man(a1-6)[Neu5Ac(a2-3)Gal(b1-3)GlcNAc(b1-2)Man(a1-3)]Man(b1-4)GlcNAc(b1-4)GlcNAc
In short: as §1

[31] = biological target: Neu5Ac(a2-3)Gal(b1-3)GlcNAc(b1-3)Gal(b1-3)GlcNAc
In short: as §1

[32] = biological target: Neu5Ac(a2-3)Gal(b1-3)GlcNAc(b1-3)Gal(b1-4)GlcNAc
In short: as §1

[33] = biological target: Neu5Ac(a2-3)Gal(b1-3)GlcNAc(b1-3)GalNAc
In short: as §1

B1: BC2LB (Burholderia cenocepacia), B4EH85_BURCJ (protein)
chain: MGSSHHHHHHSSGENLYFQGHMSQPFTHDDLYALLQLAGNDATAVQANGDQAVLDRMRQFMTAQLVEKLPQYDVFVDIATIPYSFDVGSWQNKVKTDAAGEVVACTVTWAGAPGVLPGAAAKFGVGAVVNYFSKATPH
glycan array binding signal (z-score) [1]: 0.046 | glycan array binding signal (z-score) [2]: -0.031 | glycan array binding signal (z-score) [3]: -0.229 | glycan array binding signal (z-score) [4]: -0.17 | glycan array binding signal (z-score) (GlcNAc(b1-6)GalNAc): 0.219 | glycan array binding signal (z-score) [5]: 0.206 | glycan array binding signal (z-score) (Kdn(a2-3)Gal(b1-3)GalNAc): -0.056 | glycan array binding signal (z-score) (Kdn(a2-3)Gal(b1-3)GlcNAc): -0.201 | glycan array binding signal (z-score) (Kdn(a2-3)Gal(b1-4)Glc): 1.02 | glycan array binding signal (z-score) (Kdn(a2-3)Gal(b1-4)GlcNAc): -0.248 | glycan array binding signal (z-score) [6]: 0.453 | glycan array binding signal (z-score) (Kdn(a2-6)Gal(b1-4)GlcNAc): -0.073 | glycan array binding signal (z-score) [7]: -0.19 | glycan array binding signal (z-score) [8]: -0.189 | glycan array binding signal (z-score) (Man(a1-2)Man(a1-3)Man): -0.276 | glycan array binding signal (z-score) [9]: -0.345 | glycan array binding signal (z-score) [10]: -0.231 | glycan array binding signal (z-score) [11]: 0.196 | glycan array binding signal (z-score) [12]: -0.397 | glycan array binding signal (z-score) [13]: -0.2 | glycan array binding signal (z-score) [14]: 0.843 | glycan array binding signal (z-score) (Man(a1-3)[Man(a1-6)]Man): -0.094 | glycan array binding signal (z-score) [15]: 0.045 | glycan array binding signal (z-score) [16]: 0.084 | glycan array binding signal (z-score) [17]: -0.1 | glycan array binding signal (z-score) [18]: -0.2 | glycan array binding signal (z-score) [19]: -0.173 | glycan array binding signal (z-score) (Man(a1-6)Man): -0.276 | glycan array binding signal (z-score) (Man(b1-4)GlcNAc): -0.123 | glycan array binding signal (z-score) (MurNAc(b1-4)GlcNAc): -0.288 | glycan array binding signal (z-score) (Neu5Ac(a2-3)Gal): 0.035 | glycan array binding signal (z-score) [20]: -0.184 | glycan array binding signal (z-score) [21]: -0.166 | glycan array binding signal (z-score) [22]: 0.504 | glycan array binding signal (z-score) [23]: -0.212 | glycan array binding signal (z-score) [24]: -0.112 | glycan array binding signal (z-score) [25]: 0.093 | glycan array binding signal (z-score) [26]: -0.199 | glycan array binding signal (z-score) [27]: -0.112 | glycan array binding signal (z-score) [28]: -0.25 | glycan array binding signal (z-score) [29]: -0.156 | glycan array binding signal (z-score) [30]: 0.345 | glycan array binding signal (z-score) [31]: -0.267 | glycan array binding signal (z-score) [32]: -0.208 | glycan array binding signal (z-score) [33]: -0.246

Reference: the supplement of paper PMC8728848
